# Laboratory results from patent publication US20180057551A1 (AMYLONIX, published 2018).
# Residue numbers refer to the chain shown, from its start.
# B1: AQHDEALE-[ABPP130]-VDYV-[ABD]-YVPG (designed binder)
# chain: AQHDEALEAGGEIVYFPNLNADQLCAFIRSLEDDPSQQANLLAEAKKLNDAQAPASSSSGSSSSGRASAGRERVYLPNLNADQLCAFIRSIEDDQSQRANLLAEAKKLNDAQAPKVDYVLAEAKVLANRELDKYGVSDYYKNLINNAKTVEGVKALIDEILAALPYVPG
# notes: periplasmic ABD fusion
# B2: AQHDEALE-[ABPP131]-VDYV-[ABD]-YVPG (designed binder)
# chain: B1 chain with I13R, F16L, P17T, Q38S, D82H, I91L, Q95P, R98Q
# notes: periplasmic ABD fusion
# B3: AQHDEALE-[ABPP132]-VDYV-[ABD]-YVPG (designed binder)
# chain: B1 chain with I13R, F16L, Q38S, R71G, R89Q, I91L, Q95P, R98S
# notes: periplasmic ABD fusion
# B4: AQHDEALE-[ABPP133]-VDYV-[ABD]-YVPG (designed binder)
# chain: AQHDEALEAGRERVYLPNLNADQLCAFIRSLEDDPSQSANLLAEAKKLNDAQAPASSSSGSSSSGRASAGGEIVYITNLNADQLCAFIQSLEDDPSQSANLLAEAKKLNDAQAPKVDYVLAEAKVLANRELDKYGVSDYYKNLINNAKTVEGVKALIDEILAALPYVPG
# notes: periplasmic ABD fusion
# B5: AQHDEALE-[ABPP134]-VDYV-[ABD]-YVPG (designed binder)
# chain: B4 chain with R11G, R13I, D22H, I73M, I76L, T77P, Q89R
# notes: periplasmic ABD fusion
# B6: AQHDEALE-[ABPP135]-VDYV-[ABD]-YVPG (designed binder)
# chain: B4 chain with R11G, R29Q, I73R, I76L, T77P, D82H, Q89R
# notes: periplasmic ABD fusion
# B7: AQHDEALE-[ABPP136]-VDYV-[ABD]-YVPG (designed binder)
# chain: B4 chain with I76F, T77P, P95R
# notes: periplasmic ABD fusion
# B8: AQHDEALE-[ABPP137]-VDYV-[ABD]-YVPG (designed binder)
# chain: B4 chain with R11G, D22H, I76F, T77P, D82H, Q89R
# notes: periplasmic ABD fusion
# B9: AQHDEALE-[ABPP139]-VDYV-[ABD]-YVPG (designed binder)
# chain: B4 chain with R29N, I76F, T77P, P95R
# notes: periplasmic ABD fusion
# B10: AQHDEALE-[ABPP140]-VDYV-[ABD]-YVPG (designed binder)
# chain: B4 chain with R11G, P35R, I76F, T77P, Q89R, P95S
# notes: periplasmic ABD fusion
# B11: AQHDEALE-[ABPP143]-VDYV-[ABD]-YVPG (designed binder)
# chain: B4 chain with P17R, D22H, I76L, T77P, D82H, Q89R
# notes: periplasmic ABD fusion
# B12: AQHDEALE-[ABPP144]-VDYV-[ABD]-YVPG (designed binder)
# chain: B1 chain with I13R, F16L, D22H, I91L, Q95P, R98Q
# notes: periplasmic ABD fusion
# B13: AQHDEALE-[ABPP145]-VDYV-[ABD]-YVPG (designed binder)
# chain: B1 chain with D22H, Q38S, I91L, Q95R, R98Q
# notes: periplasmic ABD fusion
# B14: AQHDEALE-[ABPP146]-VDYV-[ABD]-YVPG (designed binder)
# chain: B1 chain with I13R, F16L, D22H, R29Q, I91L, Q95P, R98S
# notes: periplasmic ABD fusion
# B15: AQHDEALE-[ABPP147]-VDYV-[ABD]-YVPG (designed binder)
# chain: B1 chain with G11R, I13R, F16L, Q38S, I91L, Q95R, R98Q
# notes: periplasmic ABD fusion
# B16: AQHDEALE-[ABPP148]-VDYV-[ABD]-YVPG (designed binder)
# chain: B4 chain with R11G, L16F, P17T, S38Q, I76F, T77P, D82H, Q89N
# notes: periplasmic ABD fusion
# Target: T1, human Aβ1-40 peptide (human, biotin at the C-terminus (flow cytometry, Examples 2-4) or at the N-terminus (SPR, ELISA); unlabeled plus Alexa488/Alexa647-labeled in FCS)
# T1 construct: synthetic peptide (AnaSpec); one entry for all labelled forms, label named under assay; also called hAβ1-40; Aβ40
# Experiment: sandwich ELISA, periplasmic ABD fusion, 2 nM biotinylated hAβ1-40
# Experimental: Half-area 96-well ELISA plates (Costar, cat. no. 3690) were coated at 4° C. overnight with 2 μg/ml of an anti-ABD goat antibody (produced in-house) diluted in coating buffer (50 mM sodium carbonate, pH 9.6; Sigma, cat. no. C3041).
row,Binder,ELISA response (absorbance 450 nm) [AU]
1,B1,≥ 0.2
2,B2,≥ 0.2
3,B3,≥ 0.2
4,B4,≥ 0.2
5,B5,≥ 0.2
6,B6,≥ 0.2
7,B7,≥ 0.2
8,B8,≥ 0.2
9,B9,≥ 0.2
10,B10,≥ 0.2
11,B11,≥ 0.2
12,B12,≥ 0.2
13,B13,≥ 0.2
14,B14,≥ 0.2
15,B15,≥ 0.2
16,B16,≥ 0.2

# Target: T1, human Aβ1-40 peptide
# Experiment: ELISA, fusion captured by anti-ABD antibody, biotinylated hAβ1-40 titrated
# T1 sequence (peptide, as listed by the source): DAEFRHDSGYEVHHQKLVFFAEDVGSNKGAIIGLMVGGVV
row,Binder,EC50 [nM]
1,B1,6
2,B2,6.8
3,B3,8.1
4,B4,420
5,B5,27
6,B6,6.3
7,B7,7.9
8,B8,8.4
9,B9,8.4
10,B10,41
11,B11,9.3
12,B12,16
13,B13,9.4
14,B14,8.6
15,B15,7.9
16,B16,6

# Target: T1, human Aβ1-40 peptide
# Experiment: SPR Biacore 2000, periplasmic sample over immobilised biotinylated hAβ1-40
row,Binder,Response RU [RU]
1,B1,21
2,B2,18.9
3,B3,23
4,B4,14.5
5,B5,10.3
6,B6,14.9
7,B7,13.7
8,B8,15.3
9,B9,10.4
10,B10,12.3
11,B11,15.8
12,B12,10
13,B13,15.2
14,B14,15.2
15,B15,17
16,B16,10.2

# Target: T2, anti-ABD goat antibody (produced in-house)
# T2 construct: also called Anti-ABD surface
# Experiment: SPR Biacore 2000, periplasmic sample over immobilised anti-ABD goat antibody
row,Binder,Response RU [RU]
1,B1,44.6
2,B2,34.7
3,B3,45.3
4,B4,38.9
5,B5,40.8
6,B6,35
7,B7,39.5
8,B8,35.2
9,B9,32.7
10,B10,36.5
11,B11,31.7
12,B12,32.1
13,B13,34.3
14,B14,36.7
15,B15,39.2
16,B16,28.7
